# Reference: PMC6919601, “Identification of Plasmodium dipeptidyl aminopeptidase allosteric inhibitors by high throughput screening” (PLoS ONE, 2019)
# Hit rate of the full screen: of about 110,000 compounds, about 230 (0.21%) showed an effect of 50% or more. The list shows a part of the results.
# Biological target: DPAP1 (Plasmodium falciparum, UniProt Q8IIJ9)
# Assay: primary screen, percent inhibition; read by cleavage of a fluorogenic dipeptide substrate; higher = more effect of the substance
# Set-up: species or system P. falciparum D10 trophozoite lysates; single well
# 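Further: 30 min substrate incubation versus DMSO and 10 µM JCP410 controls.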
# Chain of DPAP1 (Q8IIJ9 whole entry, looked up): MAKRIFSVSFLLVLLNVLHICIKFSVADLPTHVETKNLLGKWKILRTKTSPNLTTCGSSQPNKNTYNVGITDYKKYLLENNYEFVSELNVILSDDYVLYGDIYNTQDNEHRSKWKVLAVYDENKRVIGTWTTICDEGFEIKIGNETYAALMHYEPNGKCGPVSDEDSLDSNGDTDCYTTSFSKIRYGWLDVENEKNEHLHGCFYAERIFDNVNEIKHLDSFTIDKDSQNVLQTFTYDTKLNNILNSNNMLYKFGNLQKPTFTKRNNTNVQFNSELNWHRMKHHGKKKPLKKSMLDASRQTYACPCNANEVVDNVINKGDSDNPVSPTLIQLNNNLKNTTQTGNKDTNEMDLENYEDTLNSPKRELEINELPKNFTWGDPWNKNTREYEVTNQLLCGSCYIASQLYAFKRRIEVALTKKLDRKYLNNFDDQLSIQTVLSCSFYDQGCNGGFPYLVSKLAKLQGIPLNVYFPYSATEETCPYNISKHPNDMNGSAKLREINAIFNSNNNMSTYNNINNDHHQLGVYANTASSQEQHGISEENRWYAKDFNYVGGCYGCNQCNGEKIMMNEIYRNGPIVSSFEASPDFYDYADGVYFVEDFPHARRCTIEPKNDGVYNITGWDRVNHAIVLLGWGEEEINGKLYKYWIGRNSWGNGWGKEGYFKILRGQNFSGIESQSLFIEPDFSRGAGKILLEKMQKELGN
row,SMILES,% Inhibition @ 10 uM
1,CN(C)CCCC1(O)c2ccccc2CSc2sccc21 (centres unmarked),0.843%
2,CCCCC(C(=O)N1CCCCC1)N1C(=O)c2ccccc2C1=O (centres unmarked),5.59%
3,O=C(NCCCO)/C(=C\c1ccco1)NC(=O)c1ccccc1Cl,11.5%
4,CNc1ccc(Cl)cc1C(O)c1ccccc1 (centres unmarked),-3.27%
5,O=C(Nc1cccc([N+](=O)[O-])c1)c1cccc(S(=O)(=O)N2CCOCC2)c1,-0.0217%
6,O=C(NCc1ccco1)c1sc2cc(F)ccc2c1Cl,-0.294%
7,CCc1ccc(CN2C(=O)c3ccccc3C2C(=O)NCC2CCCO2)cc1 (centres unmarked),2.35%
8,CCCSc1ncc(Cl)c(C(=O)N(Cc2ccc(C(C)(C)C)cc2)C2CCS(=O)(=O)C2)n1 (centres unmarked),-0.45%
9,COc1ccccc1-c1cc(C(=O)O)c2ccccc2n1,-4.91%
10,COc1cc2c(cc1OC)C(c1cccc([N+](=O)[O-])c1)NCC2 (centres unmarked),1.66%
11,O=C(/C=C/c1ccc(Cl)cc1)Nc1ccccc1O,-5.84%
12,O=C(C1=C(O)C(=O)N(c2ccccn2)C1c1cccnc1)c1ccc(Br)cc1 (centres unmarked),-1.95%
13,COc1ccc(C2=NN(c3nc(-c4ccc(S(=O)(=O)N5CCCC5)cc4)cs3)C(c3ccc(OC)cc3)C2)cc1 (centres unmarked),-4.31%
14,COc1cccc(C2=N/C(=C\c3ccc(C(C)C)cc3)C(=O)O2)c1,-2.05%
15,COc1ccc(NC(C#N)c2ccc(OC)cc2)cc1 (centres unmarked),-5.07%
16,CCCCNc1ccc2cccc(O)c2n1,1.9%
17,COc1ccc(NC(=O)CC2Sc3ccccc3NC2=O)cc1 (centres unmarked),18.6%
18,O=C(NC1CCCC1)C1CCN(c2nc3ccc(Br)cc3s2)CC1,-11%
19,COC(=O)C1=CN(Cc2ccc(OC)cc2)C=C(C(=O)OC)C1c1ccsc1,0.611%
20,O=C(O)CN(CC(=O)O)C1CCS(=O)(=O)C1 (centres unmarked),9.29%
21,O=C(O)CSc1nncn1-c1ccccc1,0.00784%
22,CCOc1ccc2c(=O)c(Oc3ccc(F)cc3)c(C)oc2c1C,-2.37%
23,CCOC(=O)c1c(NC(=O)N(C(C)C)C2CCN(C(C)=O)CC2)sc2c1CCCC2,2.27%
24,Cc1ccc2cc3c(N)c(C(=O)Nc4ccc(F)cc4)sc3nc2c1,3.99%
25,CCOc1ccc(CCNC(=O)C2CCCN(c3nn4c(=O)cc(C)nc4s3)C2)cc1OCC (centres unmarked),-2%

row,SMILES,% Inhibition @ 10 uM
1,COc1ccc(S(=O)(=O)Cc2ccc(C(=O)NC3CCC(C)CC3)o2)cc1 (centres unmarked),-1.28%
2,CC1(C)CC(=O)c2sc(NC(=O)/C=C/c3ccccc3)nc2C1,1.97%
3,C=CCOc1ccc(C(=O)n2cc(Br)cn2)cc1,2.1%
4,Cn1c(=O)n(Cc2ccc(Cl)cc2)c2ccccc21,-2.37%
5,Oc1c2c(nc3nc(-c4ccccc4)nn13)CCC2,-2.4%
6,CC1(C)CC(=O)C2=C(C1)N(c1nc[nH]n1)C(N)=C(C#N)C2c1cccc(Br)c1 (centres unmarked),1.03%
7,Cc1ccc(C(=O)C2CCCCC2)cc1,1.13%
8,CCC(C)Cn1c(C(O)c2ccccc2)nc2ccccc21 (centres unmarked),-0.0735%
9,CCOc1ccc(CCNC(=O)C(C)n2nc(C)c3sc4ccccc4c3c2=O)cc1 (centres unmarked),-5.95%
10,N#C/C(=C\c1c(Oc2ccccc2)nc2ccccn2c1=O)S(=O)(=O)c1ccc(Cl)cc1,-0.828%
11,Cc1ccc(CCN2CC(C(=O)NCCc3ccccc3)CC2=O)cc1 (centres unmarked),-0.0542%
12,O=C(NCc1ccco1)C1COc2ccccc2O1 (centres unmarked),-9.26%
13,COc1ccc(C(=O)Nc2ccc(OCc3ccccc3)cc2)cc1OC,-0.992%
14,CCN(CC)CCN(C)C1C2CC3CC(C2)CC1C3 (centres unmarked),1.29%
15,CCCN1CCN(C(=O)Cn2nc(C)c3c(C)n(-c4ccccc4)nc3c2=O)CC1,-0.307%
16,NC(=O)CSc1nnc(COc2cccc3cccnc23)n1-c1ccc(Cl)cc1,1.72%
17,O=C(NCc1ccc(CNC(=O)c2cccs2)cc1)c1cccs1,-0.95%
18,Cc1ccc(C(=O)O)cc1NC(=O)C(C)Oc1ccc(C(C)(C)C)cc1 (centres unmarked),-0.63%
19,COc1cc(C2CC(=O)NC3=C2C(=O)CCC3)cc(OC)c1OC (centres unmarked),8.4%
20,CN1CCN(C2Cc3ccccc3Sc3cc(F)ccc32)CC1 (centres unmarked),2.84%
21,Cc1cc2ccccc2c(=O)n1CC(=O)NCc1ccc(F)cc1,10.9%
22,CC1=C(C(=O)Nc2ccccn2)C(c2ccc(Cl)cc2Cl)C2=C(O)CC(C)(C)CC2=N1 (centres unmarked),-2.16%
23,CNc1ncnc2c1N=C1CC(C)(C)CC(NC3CCCCC3)=C1S2,8.36%
24,Cc1ccnc(NC(=O)Nc2sc3nc4n(c(=O)c3c2C)CCC(C)CC4)c1 (centres unmarked),-1.7%
25,NS(=O)(=O)c1ccc(NC(=O)CNS(=O)(=O)c2ccc(F)cc2)cc1,0.512%
